Values marked as one replicate rest on one cluster of the flow cell; about a third of the high ones do not repeat.
These sequences were tested on ATP (assay: switch fluorescence ratio, 500 uM ATP over buffer (Cy3 cluster intensity, sum of 5 cycles each) (fold (ratio)); higher = stronger signal-on switching upon ATP binding; sequences stand for … in TCGTCGGCAGCGTCAGATGTGTATAAGAGACAGTTTTTTTTTTTTTTTTTTTTTTTTT…TC). Conditions: aptamer strand: ATP DNA aptamer (quencher-CACCTGGGGGAGTATTGCGGAGGAAGG + anchor), 100 nM annealed; ATP concentration: 500 uM; one replicate.
In short: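 Values give the fluorescence ratio for each switch-domain sequence, averaged from per-cluster ratios of summed target-cycle to summed buffer-cycle Cy3 intensity. The Cy3-labelled switching-strand clusters sat on a modified Illumina MiSeq flow-cell, were annealed to 100 nM quencher-labelled ATP aptamer, and were imaged in selection buffer, then after 15 min with 500 uM ATP at 22 °C. Five cycles ran with NaOH stripping and re-annealing between them, and clusters outside 100-1000 RFU were excluded.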
Sequence AACCTACAGA has a switch fluorescence ratio of 1.2.
In the case of AACCTACGGT, the switch fluorescence ratio is reported as 1.07.
Sequence AACCTACTCA has a switch fluorescence ratio of 1.32.
For AACCTAGGTC, the switch fluorescence ratio was 1.02.
AACCTATACG gave a switch fluorescence ratio of 1.09.
Work on AACCTCGCGC yielded a switch fluorescence ratio of 1.95.
AACCTCGGCA was tested, and the switch fluorescence ratio was 1.82.
Sequence AACCTGAGCA has a switch fluorescence ratio of 1.18.
Sequence AACCTGGTTT has a switch fluorescence ratio of 1.03.
In the case of AACCTTGTGT, the switch fluorescence ratio is reported as 0.97.
In the case of AACGAGAGAC, the switch fluorescence ratio is reported as 1.07.
AACGAGATGG was tested, and the switch fluorescence ratio was 0.976.
With AACGAGTTCA the switch fluorescence ratio was 0.997.
Work on AACGATGTA yielded a switch fluorescence ratio of 0.966.
For AACGCAGACA, the switch fluorescence ratio was 1.26.
AACGCAGTGG gave a switch fluorescence ratio of 0.983.
Work on AACGCATTAA yielded a switch fluorescence ratio of 2.42.
AACGCCCCAC showed a switch fluorescence ratio of 1.54.
AACGCCGAGC was tested, and the switch fluorescence ratio was 1.15.
For AACGCGGGGC, the switch fluorescence ratio was 1.04.
Work on AACGCTACGA yielded a switch fluorescence ratio of 1.68.
For AACGGAAAAT, the switch fluorescence ratio was 1.1.
AACGGAAACC was tested, and the switch fluorescence ratio was 1.15.
Sequence AACGGATGCT has a switch fluorescence ratio of 0.988.
Work on AACGGATGTC yielded a switch fluorescence ratio of 0.982.
With AACGGCGGAT the switch fluorescence ratio was 1.07.
AACGGGAAAA showed a switch fluorescence ratio of 1.1.
AACGGGATTT was tested, and the switch fluorescence ratio was 0.971.
AACGGGGCAC showed a switch fluorescence ratio of 1.01.
Sequence AACGGGGCG has a switch fluorescence ratio of 0.955.
With AACGGGGTAC the switch fluorescence ratio was 1.15.
With AACGGTATAG the switch fluorescence ratio was 1.06.
In the case of AACGGTATGA, the switch fluorescence ratio is reported as 1.08.
AACGGTTGCC showed a switch fluorescence ratio of 0.974.
AACGTCAGAA was tested, and the switch fluorescence ratio was 1.05.
AACGTCGAAT showed a switch fluorescence ratio of 1.
AACGTCGTGA gave a switch fluorescence ratio of 0.979.
In the case of AACGTGTCTA, the switch fluorescence ratio is reported as 1.01.
AACGTTCGA showed a switch fluorescence ratio of 1.05.
In the case of AACGTTGTTA, the switch fluorescence ratio is reported as 0.98.
With AACGTTTGT the switch fluorescence ratio was 0.986.
AACTAATCTA was tested, and the switch fluorescence ratio was 1.02.
For AACTACGAGG, the switch fluorescence ratio was 1.04.
AACTACGCTG showed a switch fluorescence ratio of 1.35.
Work on AACTATGAGC yielded a switch fluorescence ratio of 0.984.
AACTATTAGG gave a switch fluorescence ratio of 0.975.
AACTCAAGCG was tested, and the switch fluorescence ratio was 1.01.
For AACTCCGGTG, the switch fluorescence ratio was 1.01.
AACTCCTTCT gave a switch fluorescence ratio of 1.17.
In the case of AACTCGCT, the switch fluorescence ratio is reported as 0.991.
With AACTCGTTTC the switch fluorescence ratio was 1.05.
For AACTGAAGGC, the switch fluorescence ratio was 1.1.
Sequence AACTGAGCAC has a switch fluorescence ratio of 1.1.
AACTGGTCGT gave a switch fluorescence ratio of 1.02.
Work on AACTGTAATC yielded a switch fluorescence ratio of 1.12.
AACTGTCGGT was tested, and the switch fluorescence ratio was 1.01.
In the case of AACTGTTGGC, the switch fluorescence ratio is reported as 1.01.
AACTTGATGG showed a switch fluorescence ratio of 0.978.
In the case of AACTTGGGT, the switch fluorescence ratio is reported as 0.939.
In the case of AACTTGGTG, the switch fluorescence ratio is reported as 1.
AACTTGTCTA showed a switch fluorescence ratio of 1.03.
For AACTTGTTTG, the switch fluorescence ratio was 1.
With AACTTTCTGT the switch fluorescence ratio was 0.954.
Work on AACTTTGTAC yielded a switch fluorescence ratio of 1.06.
For AACTTTGTGG, the switch fluorescence ratio was 0.972.
AAGAAACAGG gave a switch fluorescence ratio of 0.973.
In the case of AAGAAAGATT, the switch fluorescence ratio is reported as 1.12.
AAGAACGTAT was tested, and the switch fluorescence ratio was 1.01.
Work on AAGAACGTCG yielded a switch fluorescence ratio of 1.06.
For AAGAAGCAAA, the switch fluorescence ratio was 1.05.
With AAGAAGCCTT the switch fluorescence ratio was 0.966.
AAGAAGCTAC gave a switch fluorescence ratio of 1.66.
In the case of AAGAAGGACT, the switch fluorescence ratio is reported as 1.62.
AAGAAGGTTC gave a switch fluorescence ratio of 0.987.
For AAGACACCGC, the switch fluorescence ratio was 1.1.
Work on AAGACAGTA yielded a switch fluorescence ratio of 0.988.
Work on AAGACAGTCA yielded a switch fluorescence ratio of 1.04.
Sequence AAGACATTCC has a switch fluorescence ratio of 2.24.
Sequence AAGACGGATC has a switch fluorescence ratio of 0.983.
AAGACT gave a switch fluorescence ratio of 0.984.
AAGACTATAC was tested, and the switch fluorescence ratio was 1.48.
AAGACTATGC gave a switch fluorescence ratio of 0.974.
For AAGACTCTAA, the switch fluorescence ratio was 1.01.
Work on AAGACTGCGT yielded a switch fluorescence ratio of 1.01.
For AAGAGACGGT, the switch fluorescence ratio was 1.01.
AAGAGACTCG gave a switch fluorescence ratio of 1.08.
AAGAGAGACT showed a switch fluorescence ratio of 1.01.
With AAGAGCCGCT the switch fluorescence ratio was 0.996.
Sequence AAGAGCGCTA has a switch fluorescence ratio of 1.02.
AAGAGGACTC was tested, and the switch fluorescence ratio was 0.935.
Sequence AAGAGGCTGA has a switch fluorescence ratio of 1.02.
AAGAGGTATT gave a switch fluorescence ratio of 0.98.
For AAGAGGTCGG, the switch fluorescence ratio was 0.968.
For AAGAGTACTC, the switch fluorescence ratio was 1.04.
In the case of AAGAGTTAAT, the switch fluorescence ratio is reported as 0.986.
Sequence AAGATAAGAT has a switch fluorescence ratio of 0.956.
AAGATAAGGA was tested, and the switch fluorescence ratio was 0.972.
AAGATAGGTA was tested, and the switch fluorescence ratio was 1.04.
Sequence AAGATATC has a switch fluorescence ratio of 1.04.
AAGATATGC gave a switch fluorescence ratio of 1.02.
For AAGATGACTT, the switch fluorescence ratio was 1.01.
With AAGATGCGGC the switch fluorescence ratio was 1.01.
Work on AAGATGGCTC yielded a switch fluorescence ratio of 1.05.
For AAGATTCAAG, the switch fluorescence ratio was 0.955.
With AAGATTGGCT the switch fluorescence ratio was 0.982.
In the case of AAGCAAAGC, the switch fluorescence ratio is reported as 1.11.
With AAGCACATTG the switch fluorescence ratio was 1.08.
Work on AAGCACCCAG yielded a switch fluorescence ratio of 1.19.
With AAGCACGTAG the switch fluorescence ratio was 1.02.
AAGCAGCGTC gave a switch fluorescence ratio of 0.998.
For AAGCAGTCTG, the switch fluorescence ratio was 1.03.
Work on AAGCATCCA yielded a switch fluorescence ratio of 1.02.
With AAGCATGGTT the switch fluorescence ratio was 0.991.
With AAGCCCGTAG the switch fluorescence ratio was 1.07.
Sequence AAGCCGGAAT has a switch fluorescence ratio of 1.07.
With AAGCCGGGGA the switch fluorescence ratio was 1.
With AAGCCTGTA the switch fluorescence ratio was 0.988.
Sequence AAGCGACTCA has a switch fluorescence ratio of 1.26.
In the case of AAGCGCTAAT, the switch fluorescence ratio is reported as 1.03.
AAGCGGCACG was tested, and the switch fluorescence ratio was 0.989.
Work on AAGCGGGCCC yielded a switch fluorescence ratio of 0.959.
With AAGCGTACTC the switch fluorescence ratio was 1.86.
Work on AAGCTCATTC yielded a switch fluorescence ratio of 0.934.
In the case of AAGCTCTCGA, the switch fluorescence ratio is reported as 0.954.
AAGCTCTTAA gave a switch fluorescence ratio of 0.999.
With AAGCTGAACA the switch fluorescence ratio was 1.
AAGCTGAGGA was tested, and the switch fluorescence ratio was 0.99.
AAGCTGCCTC showed a switch fluorescence ratio of 1.53.
For AAGCTGTCCG, the switch fluorescence ratio was 1.01.
AAGCTTGAG showed a switch fluorescence ratio of 0.976.
For AAGCTTGTTA, the switch fluorescence ratio was 0.981.
AAGCTTTGGC gave a switch fluorescence ratio of 0.966.
AAGGAATTTG gave a switch fluorescence ratio of 0.991.
AAGGACGTCG was tested, and the switch fluorescence ratio was 0.975.
With AAGGAGAAAA the switch fluorescence ratio was 1.01.
Sequence AAGGAGCCGG has a switch fluorescence ratio of 1.01.
AAGGAGCTTT gave a switch fluorescence ratio of 0.998.
Sequence AAGGCACGCC has a switch fluorescence ratio of 0.959.
AAGGCCTTC was tested, and the switch fluorescence ratio was 1.04.
In the case of AAGGCGAGAG, the switch fluorescence ratio is reported as 1.
With AAGGCGTGAT the switch fluorescence ratio was 1.02.
With AAGGCTGCGT the switch fluorescence ratio was 0.968.
Sequence AAGGGACGAA has a switch fluorescence ratio of 1.
In the case of AAGGGAGCAT, the switch fluorescence ratio is reported as 3.47.
With AAGGGAGCTC the switch fluorescence ratio was 0.97.
With AAGGGCGAGT the switch fluorescence ratio was 1.04.
For AAGGGCGTCG, the switch fluorescence ratio was 0.994.
AAGGGCTACA gave a switch fluorescence ratio of 0.997.
Sequence AAGGGGATGC has a switch fluorescence ratio of 0.989.
For AAGGGGCAC, the switch fluorescence ratio was 0.991.
In the case of AAGGGGCGAC, the switch fluorescence ratio is reported as 1.05.
With AAGGGGGTCG the switch fluorescence ratio was 0.862.
With AAGGGTGTG the switch fluorescence ratio was 1.05.
AAGGTACGAG was tested, and the switch fluorescence ratio was 1.01.
Work on AAGGTAGCG yielded a switch fluorescence ratio of 1.02.
In the case of AAGGTAGTA, the switch fluorescence ratio is reported as 0.998.
With AAGGTAGTTG the switch fluorescence ratio was 1.
In the case of AAGGTCTAGA, the switch fluorescence ratio is reported as 1.04.
AAGGTGCTGT showed a switch fluorescence ratio of 1.11.
Sequence AAGGTGGCGA has a switch fluorescence ratio of 0.947.
With AAGGTTAACC the switch fluorescence ratio was 0.957.
Sequence AAGGTTCAGT has a switch fluorescence ratio of 1.
For AAGGTTCGTC, the switch fluorescence ratio was 1.02.
AAGGTTTTG was tested, and the switch fluorescence ratio was 0.966.
With AAGTAAAAGG the switch fluorescence ratio was 1.03.
In the case of AAGTAAATCA, the switch fluorescence ratio is reported as 0.979.
AAGTAATCT showed a switch fluorescence ratio of 0.991.
AAGTAATTA was tested, and the switch fluorescence ratio was 1.07.
With AAGTAATTTG the switch fluorescence ratio was 1.04.
In the case of AAGTATCCAC, the switch fluorescence ratio is reported as 1.05.
Work on AAGTCACCGA yielded a switch fluorescence ratio of 1.03.
For AAGTCACGCG, the switch fluorescence ratio was 1.
AAGTCACTTA showed a switch fluorescence ratio of 1.06.
In the case of AAGTCAGTAA, the switch fluorescence ratio is reported as 0.951.
Work on AAGTCCAATA yielded a switch fluorescence ratio of 1.05.
For AAGTCCATCC, the switch fluorescence ratio was 1.11.
AAGTCCGGAA was tested, and the switch fluorescence ratio was 1.38.
AAGTGAGAAG was tested, and the switch fluorescence ratio was 1.01.
For AAGTGCCTTT, the switch fluorescence ratio was 0.923.
AAGTGCGCCA gave a switch fluorescence ratio of 0.977.
Work on AAGTGCTCGC yielded a switch fluorescence ratio of 1.06.
For AAGTGCTCTC, the switch fluorescence ratio was 0.974.
Work on AAGTGTGGTT yielded a switch fluorescence ratio of 0.995.
Work on AAGTGTGTGT yielded a switch fluorescence ratio of 0.965.
AAGTTAAAAC showed a switch fluorescence ratio of 0.994.
In the case of AAGTTAGTGT, the switch fluorescence ratio is reported as 1.01.
Sequence AAGTTATCTC has a switch fluorescence ratio of 1.03.
Work on AAGTTCGACC yielded a switch fluorescence ratio of 0.978.
In the case of AAGTTGAA, the switch fluorescence ratio is reported as 0.944.
AAGTTGCTAC was tested, and the switch fluorescence ratio was 1.03.
AAGTTTCATA showed a switch fluorescence ratio of 0.949.
AATAAAACCA showed a switch fluorescence ratio of 0.996.
AATAAAGCAG was tested, and the switch fluorescence ratio was 0.993.
With AATAACGTGG the switch fluorescence ratio was 0.989.
AATAACTGG gave a switch fluorescence ratio of 0.951.
In the case of AATAAGCCTG, the switch fluorescence ratio is reported as 0.974.
Sequence AATAAGCTAA has a switch fluorescence ratio of 1.01.
For AATAAGGCAA, the switch fluorescence ratio was 1.02.
For AATAATGGGA, the switch fluorescence ratio was 0.93.
AATAATGTTT gave a switch fluorescence ratio of 1.03.
AATACAGTTC gave a switch fluorescence ratio of 0.993.

— the supplement of paper PMC10126150
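Further: ATP exposure 15 min at 22 °C before imaging.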
